Test results published in patent publication US9789203B2, “cKIT antibody drug conjugates” (Novartis AG, priority 2013, dated 2017).
“Also recorded” adds a separate entry of the source. Read-outs that look alike come from different tables or passages of the source.

B1: NEG085 (antibody)
heavy: EVQLVESGGGLVQPGGSLRLSCAASGFAFSGYYMAWVRQAPGKGLEWVANINYPGSSTYYLDSVKGRFTISRDNAKNSLYLQMNSLRAEDTAVYYCARGDYYGTTYWYFDVWGQGTTVTVSSASTKGPSVFPLAPSSKSTSGGTAALGCLVKDYFPEPVTVSWNSGALTSGVHTFPAVLQSSGLYSLSSVVTVPSSSLGTQTYICNVNHKPSNTKVDKRV[human IgG1 Fc omitted here]
light: DIQMTQSPSSLSASVGDRVTITCRASQSISSYLNWYQQKPGKAPKLLIYYTSRLQSGVPSRFSGSGSGTDFTLTISSLQPEDFATYYCQQGRRLWSFGGGTKVEIKRTVAAPSVFIFPPSDEQLKSGTASVVCLLNNFYPREAKVQWKVDNALQSGNSQESVTEQDSKDSTYSLSSTLTLSKADYEKHKVYACEVTHQGLSSPVTKSFNRGEC
B2: 20376 (antibody)
heavy: QVQLVQSGAEVKKPGSSVKVSCKASGGTFSSYAISWVRQAPGQGLEWMGGIIPMSGRTTYAQKFQGRVTITADESTSTAYMELSSLRSEDTAVYYCARDYGPEAPDYGQSTSYFWYYAFDPWGQGTLVTVSSASTKGPSVFPLAPSSKSTSGGTAALGCLVKDYFPEPVTVSWNSGALTSGVHTFPAVLQSSGLYSLSSVVTVPSSSLGTQTYICNVNHKPSNTKVDKRV[human IgG1 Fc omitted here]
light: DIELTQPPSVSVSPGQTASITCSGDNIPSYFVHWYQQKPGQAPVLVIYDDNDRPSGIPERFSGSNSGNTATLTISGTQAEDEADYYCSSWDQDTVVFGGGTKLTVLGQPKAAPSVTLFPPSSEELQANKATLVCLISDFYPGAVTVAWKADSSPVKAGVETTTPSKQSNNKYAASSYLSLTPEQWKSHRSYSCQVTHEGSTVEKTVAPTECS
B3: NEG085-MCC-DM1 (conjugate)
heavy: B1 heavy
light: B1 light

Experiments:
[1] = test system: GIST-T1, GIST430, NCI-H526, NCI-H1048, CMK11-5, Uke-1 cells; experiment: In vitro activity of cKIT-MCC-DM1 ADCs on GIST, SCLC and AML cell lines (Cell titer Glo); assay type: cell-based, human; conditions: 5 to 8 days, IgG-MCC-DM1 as control, FIGS. 4-9
Protocol: Following conjugation to the MCC-DM1 linker-payload, the ability of the antibody drug conjugates (ADCs) to inhibit the proliferation of AML, SCLC and GIST cell lines was determined. For a listing of the cells used in these experiments by supplier see Example 10 above.
Briefly, cells were cultured in a tissue culture incubator at 37° C. with 5% CO2 in culture medium as recommended by the supplier. On the day of the assay, cells were washed twice with PBS (Cellgro, Cat #21-031-CV, Corning Tewksbury, Mass.), prior to being treated with 0.1% trypsin-EDTA (in-house technical services) for 5 min and resuspended in the recommended culture medium. Cells were then counted and seeded in 96 well plates (Costar catalog #3603, Corning, Tewksbury, Mass.) at densities of 5,000 cells/well for AML and SCLC cells and 10,000 cells/well for GIST cells in 100 μl of cell culture medium. A duplicate plate was generated for a day 0 measurement and all plates were incubated in a tissue culture incubator at 37° C. with 5% CO2 overnight. Following this incubation, 100 μl/well of Cell titer Glo® reagent (Promega catalog # G7573, Promega, Madison, Wis.) was added to the day 0 plates, which were then shaken gently for 2 min, incubated for 10 min, and the resulting luminescence intensity was measured using a Perkin Elmer Wallac Microbeta® Trilux plate reader (Perkin Elmer, Waltham, Mass.). Test ADCs were serially diluted to a 3× stock solution in the appropriate cell culture medium and 50 μl of 3× serially diluted ADCs were added (final assay concentration of 0.0002-68 nM DM1 equivalents) prior to incubation in a tissue culture incubator at 37° C. with 5% CO2 for 5 to 8 days. Following this incubation period, relative cell viability was determined via the addition of Cell titer Glo® reagent as described above. The effect of the ADCs on cell proliferation was calculated using the average of the duplicates as follows: (% of maximum affection (AMAX)=(untreated-highest ADC concentration treated)*100).
The % inhibition data was fitted to a 4-parameter logistic equation and GI50 values were determined. […]

MO7e cells grown in SCF = experiment: Mo7e proliferation in the presence of SCF (Cell titer Glo); assay type: cell-based, human; conditions: 5 days, FIG. 15
Protocol: To evaluate the potential antagonistic properties of the naked antibodies and the ability of the antibody drug conjugates (ADCs) to inhibit the proliferation of a cKIT-expressing cell line, MO7e (DSMZ, Catalog # ACC-104, Braunschweig, Del.) were grown in the presence or absence of cKIT ligand, Stem Cell Factor (SCF), for survival. MO7e cells were grown in either 10 ng/ml human granulocyte-macrophage colony-stimulating factor GM-CSF (R&D Systems Cat#215-GM, Minneapolis, Minn.) or 10 ng/ml human Stem Cell Factor SCF (R&D Systems Cat#255-SC) prior to seeding in 96 well plates (Costar Cat #3904, Corning, Tewksbury, Mass.) at 5000 cells/well in 100 μl dilution medium. A duplicate plate was generated for a day 0 measurement and all plates were incubated in a tissue culture incubator at 37° C. with 5% CO2 overnight. Following this incubation, an additional 50 μl of dilution medium was added, followed by 90 μl/well of Cell titer Glo® reagent (Promega Cat# G7573, Madison, Wis.) to each well of the designated “day 0” plate. Assay plates were shaken gently for 20 min and the resulting luminescence intensity was measured using a Perkin Elmer 1450 Microbeta TriLux® plate reader (Perkin Elmer, Waltham, Mass.). Test naked Abs and ADCs were prepared at 3× concentration; 30 μg/ml in the appropriate cell culture medium and diluted serially 5-fold for 8 points. Medium only wells were also generated to act as negative controls. 50 μl of 3× serially diluted antibodies or ADCs were added (final assay concentration 0.0009-68 nM) prior to incubation in a tissue culture incubator at 37° C. with 5% CO2 for 5 days. Following this incubation period, relative cell viability was determined via the addition of Cell titer Glo reagent as described above. The effect of the ADCs on cell proliferation was calculated using the average of the duplicates as follows: (% Inhibition=(ADC or Ab treated)/(untreated)*100) The % inhibition data was fitted to a 4-parameter logistic equation and IC50 values were determined.

primary human mast cells [2] = experiment: Mast cell apoptosis (Caspase-Glo 3/7); assay type: cell-based; conditions: 0.05-100 nM, 1.6 nM rhSCF, 48 h, FIG. 18
Protocol: Primary human mast cells were cultured from peripheral human blood according to the methods described by Saito et al., Nature Protocols 2006; 1(4):2178-2183. […] Following 30 min incubation at RT, luminescence was recorded on the BioTek® Synergy plate reader (BioTek, Winooski, Vt.).

primary human mast cells [3] = experiment: Mast cell degranulation (β-hexosaminidase release); assay type: cell-based; conditions: 0.05-100 nM, 90 min, FIG. 19
Protocol: Primary human mast cells were cultured from peripheral human blood according to the methods described by Saito et al., (supra). […] Cells were then centrifuged and the supernatants were transferred into 96-well black-walled plates prior to the addition of the β-hexosaminidase substrate. Following 90 min incubation at 37° C., the reaction was stopped by the addition of tris-base (Sigma, Cat # T1503-500G, pH 12, St. Louis, Mo.) and the fluorescence intensity was recorded on the Envision® plate reader.

[4] = GIST430, Day 28, 10 mg/kg Single Dose IV
[5] = GIST 430, single i.v. dose 10 mg/kg
[6] = GIST430, Day 28, 5 mg/kg Single Dose IV

| Molecule | inhibition of cell proliferation [1] | inhibition of cell proliferation (MO7e cells grown in SCF) | mast cell apoptosis (primary human mast cells [2]) | mast cell degranulation (primary human mast cells [3]) | Mean change of tumor volume (GIST430 tumor xenograft; [4]) | Mean change of tumor volume vs control (ΔT/ΔC) (GIST430 tumor xenograft; [4]) [%] | Survival (GIST430 tumor xenograft; [4]) | antitumor activity (tumor volume) (GIST430 tumor xenograft; [5]) | tolerability (GIST430 tumor xenograft; GIST 430, 2.5, 5 or 10 mg/kg single i.v. dose) | Mean change of tumor volume (GIST430 tumor xenograft; [6]) | Mean change of tumor volume vs control (ΔT/ΔC) (GIST430 tumor xenograft; [6]) [%] | Survival (GIST430 tumor xenograft; [6]) | antitumor activity (tumor volume) (GIST430 tumor xenograft; GIST 430, single i.v. dose 5 mg/kg) |
| --- | --- | --- | --- | --- | --- | --- | --- | --- | --- | --- | --- | --- | --- |
| B1 | very effective in reducing cell proliferation | do not have this effect | do not mediate primary human mast cell apoptosis; also recorded: do not lead to apoptosis of human primary mast cells ex vivo | do not mediate primary human mast cell degranulation; also recorded: do not induce mast cell degranulation | 760 ± 119 mm3 ± SEM | 88 | 8/8 | not active |  |  |  |  |  |
| B2 | very effective in reducing cell proliferation | do not have this effect | do not mediate primary human mast cell apoptosis; also recorded: do not lead to apoptosis of human primary mast cells ex vivo | do not mediate primary human mast cell degranulation; also recorded: do not induce mast cell degranulation |  |  |  |  |  |  |  |  |  |
| B3 |  | inhibits cell proliferation of M07e cells at a low concentration |  |  | 167 ± 42 mm3 ± SEM | 19 | 8/8 | significantly efficacious | well tolerated at all dose levels | 485 ± 70 mm3 ± SEM | 56 | 8/8 | not significantly active |
